Source: PubChem BioAssay AID1671188 (National Center for Advancing Translational Sciences (NCATS), 2021)
Hit rate of the full screen: of about 100,000 compounds, about 250 (0.25%) were called active. The shares of active, inactive and inconclusive entries below differ from those in the screen. Calls come from the whole dose curve; as a rule, active = well fitted inhibition curve with a large enough effect; inconclusive = small, poorly fitted or top-dose-only effect; inactive = flat fitted curve, though single readings scatter. No potency is given beside an inconclusive call; the fits are too rough.
% is set by controls: 0 for no effect and ±100 for the full control effect; potency is the fitted concentration of half-maximal effect; tags give direction and shape of the fitted curve.
Note: nearly all actives have a fitted effect of over 60% in size.

The compounds below were run against Alanine aminotransferase 2 (Homo sapiens) (UniProt Q8TD30) (assay: Primary qHTS assay for inhibitors of Glutamate pyruvate transaminase 2 (GPT2)). Settings: Recombinant GPT2, coupled pyruvate oxidase/HRP Amplex Red fluorescence; activity change, negative = inhibition: at 57.7 µM (top of the series) unless noted; series mostly up to 57.7 µM.
UniProt Q8TD30, sequence (Q8TD30 whole entry, looked up): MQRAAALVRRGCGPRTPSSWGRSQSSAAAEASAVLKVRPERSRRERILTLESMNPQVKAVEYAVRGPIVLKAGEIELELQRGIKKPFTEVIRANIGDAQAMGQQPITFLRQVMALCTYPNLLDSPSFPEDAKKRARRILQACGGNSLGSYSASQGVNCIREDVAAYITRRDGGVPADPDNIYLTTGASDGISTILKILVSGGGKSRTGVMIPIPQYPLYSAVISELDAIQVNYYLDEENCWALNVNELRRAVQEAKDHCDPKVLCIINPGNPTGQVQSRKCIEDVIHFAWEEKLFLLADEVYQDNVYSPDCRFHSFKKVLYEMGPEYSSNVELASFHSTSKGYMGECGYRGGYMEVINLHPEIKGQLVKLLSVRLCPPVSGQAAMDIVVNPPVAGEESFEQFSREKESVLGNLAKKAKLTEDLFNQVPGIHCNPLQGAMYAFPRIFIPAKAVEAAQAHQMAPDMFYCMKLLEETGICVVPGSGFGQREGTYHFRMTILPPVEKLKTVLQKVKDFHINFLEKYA
Procedure, shortened: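 Inhibition is scored from Amplex Red fluorescence generated when pyruvate oxidase and HRP act on pyruvate released by GPT2. Reactions contain 10ng/uL enzyme, 250uM a-KG and 2mM L-alanine and run 30 min at room temperature.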
For `COc1ccc(O)c(CN2CCC(CO)(Cc3ccccc3Cl)CC2)c1`, the Potency was inconclusive [inhibitor, single point]. `COc1ccc(F)c(-c2nc(CN(C)CC3(CO)CC3)c(C)o2)c1` was tested, and the “activity change, negative = inhibition” value was inactive: -1.93%. For `COc1cccc(-c2ccc(CN3CCCC(N[S+](=O)([O-])c4ccccc4)C3)cc2)c1` (stereo unspecified), the “activity change, negative = inhibition” value was inactive: -9.51%. `COc1ccc(N2CC3(C2)CN(c2ccccc2)C(=O)O3)cc1OC` was tested, and the Potency was inconclusive [inhibitor, full curve, poor fit]. `O=C(c1ccc(F)cc1)N1CC(Oc2cccc(-c3nc(-c4ccccc4)no3)c2)C1` was tested, and the “activity change, negative = inhibition” value was inactive: -6.41%. In the case of `COc1ccccc1N1CCN(C(=O)Cn2ccn3nc4c(c3c2=O)CCCCC4)CC1`, the Potency is reported as inconclusive [inhibitor, single point]. In the case of `CC[C@@H]1C=C(C)C[C@H](C)C[C@H](OC)[C@H]2O[C@@](O)(C(=O)C(=O)N3CCCC[C@@H]3C(=O)O[C@H](C(C)=C[C@@H]3CC[C@H](Cl)[C@H](OC)C3)[C@H](C)[C@@H](O)CC1=O)[C@H](C)C[C@H]2OC`, the Potency is reported as inconclusive [inhibitor, single point]. With `CCc1cc(=O)n(CC(=O)Nc2ccc(OC)c(OC)c2)c(-c2ccccc2)n1` the “outcome” value was “inactive”. With `O=C(NC1CCN(C(=O)c2ccc(-c3cncnc3)cc2)CC1)c1ccc(Cl)nc1` the “outcome” value was “inactive”. `CCc1ccc(C(=O)Nc2cc(CN3CCN(C)CC3)cc(C(F)(F)F)c2)cc1C#Cc1cnc2ccnn2c1` was tested, and the Potency was inconclusive [inhibitor, single point]. `O=C1CCC2(CCN(c3ncc(F)cn3)CC2)CN1CC1CCCO1` (stereo unspecified) was tested, and the Potency was inconclusive [inhibitor, single point]. With `CCN1c2cc(C(=O)Nc3cccc(F)c3)ccc2C(=O)N2CCCCC21` (stereo unspecified) the “activity change, negative = inhibition” value was inactive: -1.47%. In the case of `COCCNC(=O)[C@H]1C[C@H](Oc2ccccc2)CN1S(=O)(=O)c1c(C)noc1C`, the Potency is reported as inconclusive [inhibitor, single point]. In the case of `CC(=O)OC(C)(C)/C=C/C(=O)[C@](C)(O)C1[C@H](O)C[C@@]2(C)[C@@H]3CC=C4[C@@H](C[C@H](O[C@@H]5O[C@H](CO)[C@@H](O)[C@H](O)[C@H]5O)C(=O)C4(C)C)[C@]3(C)C(=O)C[C@]12C` (stereo partly specified), the Potency is reported as inconclusive [inhibitor, single point]. In the case of `Cn1ccnc1CN[C@@H]1CO[C@H](CNC(=O)c2ccc(F)cc2)[C@H]1O`, the Potency is reported as inconclusive [inhibitor, single point]. With `O=[S+]1([O-])NC2(CCN(Cc3ccc(C(F)(F)F)cc3)C2)CNc2ccccc21` (stereo unspecified) the “outcome” value was “inactive”. In the case of `O=C(c1ccccc1F)N1CCC(N2CC3(CCCC3)C2c2ccccc2)CC1` (stereo unspecified), the “outcome” value is reported as “inactive”. With `COc1ccc(-c2ccc3ncc(Nc4ccccc4)n3n2)cc1OC` the Potency was inconclusive [inhibitor, partial curve, poor fit]. `CN1CCC(NCC2(COc3ccc(C(F)(F)F)cn3)C[C@@H](O)[C@@H](O)C2)CC1` (stereo partly specified) was tested, and the Potency was inconclusive [inhibitor, single point]. `CN(c1ccccc1)c1cc(=O)c2ccnc(N3CCOCC3)c2o1` was tested, and the “outcome” value was “inactive [at 88.5 µM]”. For `CN(Cc1ccc(F)cc1)S(=O)(=O)c1cccs1`, the “activity change, negative = inhibition” value was inactive: -9.51% [at 88.5 µM]. `O=C(Nc1cc(-c2ccccn2)nn1-c1ccccc1)C1CC1` was tested, and the “activity change, negative = inhibition” value was inactive: 1.59% [at 88.5 µM]. For `COc1ccc(C(=O)N2CCC[C@H]2c2nc(-c3ccc(OC)c(OC)c3)no2)c(C)c1`, the Potency was inconclusive [inhibitor, single point]. In the case of `Cc1noc([C@@H]2CC(F)(F)CN2C(=O)c2n[nH]c3ccccc23)n1`, the Potency is reported as inconclusive [inhibitor, single point]. In the case of `O=C(OCCN1CCOCC1)c1cccnc1Nc1cccc(C(F)(F)F)c1`, the Potency is reported as inconclusive [inhibitor, partial curve, poor fit]. `CC(=O)Nc1cccc(C(=O)NC2CCCN(c3cc(-c4ccc(F)cc4)[nH]n3)C2)c1` (stereo unspecified) was tested, and the Potency was inconclusive [inhibitor, partial curve]. With `CN1CC2(CCN(Cc3cn(C)c4ccccc34)CC2)CC1C(=O)N1CCOCC1` (stereo unspecified) the Potency was inconclusive [inhibitor, partial curve, poor fit]. With `O=C(NC[C@H]1O[C@H](Cc2cc(COc3ccccc3)on2)CC[C@@H]1O)Nc1ccc(F)cc1` the Potency was inconclusive [inhibitor, partial curve, poor fit]. For `CC(C)(N)C(=O)N1CCCC(N2CCN(c3cccc(Cl)c3)CC2)C1` (stereo unspecified), the “outcome” value was “inactive”. For `CC(=O)N1CCC(C2CCN(Cc3ccccc3F)C2)CC1` (stereo unspecified), the “activity change, negative = inhibition” value was inactive: -25.4%. With `Cn1cccc1C(=O)N1C[C@@H](Oc2ccccc2)C[C@@H]1C(=O)N1CCOCC1` the Potency was inconclusive [inhibitor, single point]. For `CC(C)N1C[C@H](O)C[C@H]1c1nnc2n1CCN(C(=O)c1ccoc1)CC2`, the Potency was inconclusive [inhibitor, single point]. For `CN1C[C@H](C(=O)Nc2nccs2)C[C@H]1c1cccc(C(F)(F)F)c1`, the Potency was inconclusive [inhibitor, single point]. `Cc1cc(N2CCC3(CC2)C(C(=O)O)CC(=O)N3C)ccn1` (stereo unspecified) was tested, and the Potency was inconclusive [inhibitor, single point]. In the case of `COC(=O)c1cccc(NC(=O)CCNc2c(C)nc3cnccn23)c1`, the Potency is reported as inconclusive [inhibitor, full curve, poor fit]. With `COc1c(OC2OC(CO)C(O)C(O)C2O)ccc(O)c1C(=O)OCc1ccccc1O[C@@H]1O[C@H](CO)[C@@H](O)[C@H](O)[C@H]1O` (stereo partly specified) the Potency was inconclusive [inhibitor, single point]. For `COc1ccc(CN2CC[C@@H]3[C@H]2C(=O)NC[C@H](CCC(=O)N2CCOCC2)N3C)cc1`, the Potency was inconclusive [inhibitor, single point]. For `COc1ccc(F)cc1C(=O)N1CC[C@@H]2[C@@H](CCC(=O)N2CCN)C1`, the Potency was inconclusive [inhibitor, single point]. `COCCOc1ccc2c(n1)CCN(C(=O)COc1ccc(F)cc1)C2` was tested, and the “outcome” value was “inactive”. In the case of `CC(C)(C)C(=O)N1CCC2(CC1)Cc1ccccc1NC2=O`, the “outcome” value is reported as “inactive [at 88.5 µM]”. For `c1ccc(CCN2CCNc3cc(NCCN4CCOCC4)ncc3C2)cc1`, the “outcome” value was “inactive [at 88.5 µM]”. `COc1ccc(OC)c(-c2ccc3ncn(-c4ccc(F)cc4F)c(=O)c3n2)c1` was tested, and the “activity change, negative = inhibition” value was inactive: -9.43% [at 88.5 µM]. In the case of `Cc1cc(C)cc(-c2ccc(CN3CCCC3C(=O)Nc3ccccc3F)cc2)c1` (stereo unspecified), the “activity change, negative = inhibition” value is reported as inactive: -0.283%. With `Cc1ccc(NC(=O)N2CCC(CCNC(=O)CCCc3ccccc3)CC2)cc1` the Potency was inconclusive [inhibitor, partial curve, poor fit]. With `CN(Cc1cc(=O)c2cc(C(N)=O)ccc2[nH]1)Cc1n[nH]c2c1CCCCC2` the Potency was inconclusive [inhibitor, single point]. For `O=C(c1ccncc1)N1CC(Oc2ccccc2-c2nc(-c3cnccn3)no2)C1`, the Potency was inconclusive [inhibitor, single point]. In the case of `O=C(NCC(F)(F)F)c1nc2cccnc2n(Cc2ccccc2)c1=O`, the “outcome” value is reported as “inactive”. With `C[C@@H]1C(=O)O[C@H]2[C@H]1CC[C@@]1(C)Cc3sc(NC(=O)NC4CCCCC4)nc3[C@@H](C)[C@H]21` the “activity change, negative = inhibition” value was inactive: -13% [at 88.5 µM]. For `O=C(NC1CCCCC1)O[C@@H]1CO[C@H]2[C@@H]1OC[C@@H]2Nc1nccc(-c2cccs2)n1`, the “activity change, negative = inhibition” value was inactive: 1.9% [at 88.5 µM]. For `CC(=O)N1CCC(C(=O)NCC2CCN(c3cc(-c4ccc(Cl)cc4)[nH]n3)CC2)CC1`, the Potency was inconclusive [inhibitor, single point]. For `COc1ccc(-c2cc(N3CCC(NC(=O)c4ccc(NC(C)=O)cc4)CC3)n[nH]2)cc1`, the “activity change, negative = inhibition” value was inactive: -25.1%. `CN1CCC(C(=O)N2Cc3ccccc3CC3(CCN(Cc4ccncc4)C3)C2)CC1` (stereo unspecified) was tested, and the Potency was inconclusive [inhibitor, full curve, poor fit]. For `Fc1cccc(C2CCCCCN2Cc2cn(-c3ccccc3)nn2)c1` (stereo unspecified), the activity change, negative = inhibition was inactive: -3.5% [at 11.5 µM]. In the case of `CC(C)c1ccc(CN2CCCC3(CCN(C(=O)c4ccnn4C)C3)C2)cc1` (stereo unspecified), the “outcome” value is reported as “inactive”. For `COCCC1(NS(C)(=O)=O)CCN(C(=O)Nc2ccc3c(c2)OCCO3)CC1`, the “outcome” value was “inactive”. In the case of `OCc1ccc(CN2Cc3[nH]cnc3C[C@H]2c2nc(-c3ccncc3)no2)o1`, the “activity change, negative = inhibition” value is reported as inactive: 2.71% [at 88.5 µM]. With `Cn1cc(CN2C[C@@H]3C[C@H]2C(=O)N(CC2CC2)c2ccccc2O3)c2ccccc21` the Potency was inconclusive [inhibitor, single point]. For `N#Cc1ccc(C(=O)NC2CCN(c3cc(-c4ccc(Cl)cc4)[nH]n3)C2)cc1` (stereo unspecified), the Potency was inconclusive [inhibitor, partial curve]. `N#Cc1cccc(CN2CCC3(CC2)CC(Cc2nc(C4CC4)no2)CCO3)c1` (stereo unspecified) was tested, and the “activity change, negative = inhibition” value was inactive: -2.04%. In the case of `COc1ccc(Nc2cc3c(cn2)CN(CCc2ccccc2)CCN3)cc1OC`, the Potency is reported as inconclusive [inhibitor, single point]. With `Cn1cnc(S(=O)(=O)N2CCCC(Cc3nncn3CC3CC3)C2)c1` (stereo unspecified) the “outcome” value was “inactive”. In the case of `Cc1noc(-c2ccco2)c1C(=O)NCCC(c1ccccc1)c1ccccc1`, the “activity change, negative = inhibition” value is reported as inactive: 2.16%. In the case of `COCCNC(=O)C1CCCN1Cc1cccc(-c2cccc(OC)c2)c1` (stereo unspecified), the “activity change, negative = inhibition” value is reported as inactive: 0.817%. `COc1ccc(-c2noc(Nc3ccc4c(c3)OCO4)n2)cc1` was tested, and the “outcome” value was “inactive”. With `COc1cc(CNC(=O)[C@@H]2C[C@@H](c3cccc(C(F)(F)F)c3)N(C)C2)cc(OC)c1` the Potency was inconclusive [inhibitor, single point]. In the case of `Cn1ccnc1C(O)C1CCN(C(=O)Cc2c[nH]c(=O)n(C)c2=O)CC1` (stereo unspecified), the Potency is reported as inconclusive [inhibitor, single point].
